Hit rate of the full screen: of about 300,000 compounds, about 22,000 (7.3%) were called active. This list was built around the results that the source calls inconclusive (neither active nor inactive); the mix of calls is not that of the screen. Cut-off read from the data, not from the text of the source: active = activity score below about -60%; inconclusive = mostly about -28% to -61%; inactive = positive scores.
Assay: Activators via SNCA 5'UTR binding, MLPCN (AID 1814)
Conditions: alpha-synuclein 5'UTR reporter, activators screen; stronger effect = lower value; tested at 7.5 µM

SMILES | activity score
COc1ccc(C(=O)COC(=O)c2nn(C)cc2Cl)cc1 | inconclusive: -46%
COc1ccccc1N1CCN(Cc2cc(Br)c(O)c3ncccc23)CC1 | inactive: 77%
CCCCOC(=O)Nc1ccc(C(=O)OCCC)cc1 | inconclusive: -55.2%
COc1ccc(/C=C2\NC(=S)N(CC3CCCO3)C2=O)c(OC)c1 (configuration not stated) | inconclusive: -45.6%
Cc1ccc(C)c2[nH]c(=O)c(CCNC(=O)C(C)(C)C)cc12 | inconclusive: -17.6%
O=C(CCSc1ccccn1)Nc1ccc(Br)cc1 | active: -153%
OC(CCN1CCOCC1)(c1ccc(Cl)cc1)C1CCCCC1 (configuration not stated) | inconclusive: -17.8%
Cc1nn2c(=O)c(NC(=O)c3ccc(F)cc3)cnc2s1 | inconclusive: -51%
Cc1c(C(=O)N2CCN(C)CC2)oc2ccc(Br)cc12 | active: -104%
O=c1cc(-c2ccccc2)c2ccc(O)cc2o1 | inactive: 48.2%
C=CCOc1ccc(C2C(C(=O)c3ccco3)=C(O)C(=O)N2CCCN(CC)CC)cc1 (configuration not stated) | inconclusive: -45.6%
Cc1ccnc(NC(=O)c2cc3ccccc3o2)c1 | inactive: 97%
COCCNC(=S)N1CCc2cc(OC)c(OC)cc2C1c1cccs1 (configuration not stated) | inconclusive: -60.3%
Cc1ccc(NC(=O)c2c(NC(=O)CCC(=O)O)sc3c2CCCCC3)cc1 | inconclusive: -46.2%
CCN1CCCC1CNC(=O)C(=O)Nc1ccccc1 (configuration not stated) | inconclusive: -60.1%
COC(=O)c1sc(NC(=S)NC(=O)c2cccc(Br)c2)nc1C | active: -104%
Cc1ccc(N2CCN(C(=O)c3cc(C(=O)c4ccccc4C)c[nH]3)CC2)c(C)c1 | inactive: 58.4%
COc1cccc2sc(N(CCCN(C)C)C(=O)c3ccc(S(=O)(=O)N4CCc5ccccc5C4)cc3)nc12 | inactive: 94.2%
CCCCOC(=O)c1ccc(NC(=O)c2ocnc2C)cc1 | inconclusive: -58.9%
O=C1CCN(CCc2ccccc2)CCN1CCSc1ccccc1 | active: -69.4%
Cc1cc(C)n(S(=O)(=O)c2ccccc2[N+](=O)[O-])n1 | inconclusive: -51.7%

SMILES | activity score
Cn1c(-c2c(N)n(CCCc3ccccc3)c3nc4ccccc4nc23)nc2ccccc21 | inconclusive: -57%
O=C(Nc1cccnc1)Nc1cccc([N+](=O)[O-])c1 | inconclusive: -49.5%
O=C(NCc1ccco1)c1sc2cc(F)ccc2c1Cl | inconclusive: -58.4%
C/C(=N\NC(=O)CCCNc1ccc(C)cc1)c1ccccn1 | inactive: 78.3%
CCc1cccc2c1Sc1ccccc1CC2N1CCNCC1 (configuration not stated) | inactive: 104%
O=C(NCc1ccccc1)NC(=O)c1ccccc1F | inconclusive: -54.2%
COC(=O)c1cc(NC(=O)CSC2=NCCS2)cc(C(=O)OC)c1 | inconclusive: -35.5%
CCC1CCCCN1C(=O)CCc1nnc(C2CCCCC2)o1 (configuration not stated) | inconclusive: -49.2%
Cc1ccc(CNC(=O)Cc2ccc(-c3ccccc3)cc2)cc1 | inactive: 73.3%
CCOc1nc(SC(C(C)=O)C(=O)Nc2ccccc2)nc(N(C)C)n1 (configuration not stated) | inconclusive: -48.3%
COCCCNC(=S)N1CCN(c2nc3ccccc3s2)CC1 | inconclusive: -42%
COc1cc(NC(=O)c2cccnc2)c(Cl)cc1NC(=O)c1ccccc1 | inconclusive: -55.4%
CC(C)(C)NC(=O)C(c1ccncc1)N(Cc1ccc(F)cc1)C(=O)c1ccc(-c2ccccc2)[nH]1 (configuration not stated) | inconclusive: -60.9%
O=[N+]([O-])c1cccc(-c2ccc(SCc3cccnc3)nn2)c1 | inconclusive: -57.9%
O=C(NNC(=O)c1ccc(Cl)cc1Cl)c1ccncc1 | inconclusive: -48.7%
COC(=O)c1coc(-c2ccc(OC)cc2)c1C(=O)OC | inconclusive: -60.6%
COc1cc(/C=N/Nc2nnc3c(n2)[nH]c2ccccc23)ccc1O | inconclusive: -60.4%
O=C(Nc1cccc(-c2cn3ccccc3n2)c1)c1cc2ccccc2oc1=O | active: -99.9%
O=C(CSc1ccccc1)Nc1ccc(-c2nc3ccccc3[nH]2)cc1 | active: -171%
CCN(C(=O)CN1C(=O)S/C(=C\C=C\c2ccccc2)C1=O)C1CCS(=O)(=O)C1 (configuration not stated) | active: -118%
COc1ccc2c(c1OC)C(=O)N(c1ccc3c(c1)CCC3)C2=O | inconclusive: -59.9%

SMILES | activity score
O=C(/C=C/c1ccccc1)NC(=O)c1ccccc1O | active: -157%
COC(=O)c1cccc(Nc2cc(C)nc(-c3ccccc3O)n2)c1 | inconclusive: -43.1%
CCc1ccc(C(=O)Cn2ncc(Cl)c(Cl)c2=O)cc1 | active: -64%
CSc1ccc(C(=S)N2CCN(CCO)CC2)cc1 | inconclusive: -41.2%
Cc1ccc(N(O)C(=O)NCCCCNC(=O)N(O)c2ccc(C)cc2)cc1 | active: -97.2%
CCOc1ccccc1OCCCOc1ccc(C)cc1Br | inconclusive: -49.4%
CCN(CC)c1ccc(NC(=O)c2ccc(Br)o2)c(C)c1 | inconclusive: -54.8%
Cc1ccc2scc(CN3CCCC3)c2c1 | inconclusive: -44.4%
COc1ccc(Cl)cc1NC(=O)C1Cc2ccccc2CN1S(C)(=O)=O (configuration not stated) | inactive: 53.9%
COc1ccc(/C=N/NC(=O)COc2ccccc2-c2ccccc2)cc1 | inactive: 69.6%
O=C(OCCC1Oc2cccnc2NC1=O)c1ccc([N+](=O)[O-])cc1 (configuration not stated) | inactive: 33.7%
Cc1ccc(N/N=C2\CC(=O)c3ccccc32)cc1Cl | inconclusive: -58.9%
CCNC(=S)NNC(=S)NCc1ccccc1 | inconclusive: -46.9%
CCCCCCOC(=O)c1ccc(N)cc1 | active: -114%
O=C1CCCc2c1[nH]c1ccc(Cl)cc21 | inactive: 63.1%
Cc1nnc(Nc2ccc3c(c2)ncn3C)c2ccccc12 | inconclusive: -58.8%
CC1CCCC(NC(=O)c2n[nH]c(=O)c3ccccc23)C1C (configuration not stated) | inconclusive: -49.1%
O=c1nc(N/N=C/C=C/c2ccccc2)cn[nH]1 | inconclusive: -60.8%
O=C(N/N=C/c1c(O)ccc2ccccc12)c1cccnc1 | inactive: 92.9%
CCOC(=O)c1[nH]c2ccc(Br)cc2c1NC(=O)CCN1CCCC(C)(C)C1 | inconclusive: -40.8%

From PubChem BioAssay AID1814 (Broad Institute, 2009)
